# Measured values taken from PubChem BioAssay AID1508642 (National Center for Advancing Translational Sciences (NCATS), 2021).
# The whole screen tested about 43,000 compounds, of which about 200 (0.47%) were called active. About 12% were inconclusive and are not listed. Calls follow the shape of the dose curve; as a rule, active = well fitted cell-killing curve with a large enough effect; inconclusive = small, poorly fitted or top-dose-only effect, or effect the other way; inactive = flat fitted curve, though single readings scatter. The list shows a part of the results.
# Test: Cell viability qHTS assay in S16 Pmp22-F2sN cells; also: nearly all actives have a fitted effect of over 65% in size
# Conditions: S16 Pmp22-F2sN Schwann cells (luciferase reporters placed in the Pmp22 gene) viability, CellTiter-Glo, 24 h; series mostly up to 57.5 µM; activity change, negative = cytotoxicity: at the top concentration
# Summary of the method: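 CellTiter-Glo counter-screen, qHTS, 1536-well. Cells: S16(c9) Pmp22-F2sN, 500-1,000/well in DMEM + 10% FBS. Cpd 23 nL pin transfer, 24 h, 37C/5% CO2. Read: luminescence, CCD imager.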
# % is scaled to controls: 0 for no effect and ±100 for the full control effect; potency is read from the fitted curve at half-maximal effect.
SMILES,"activity change, negative = cytotoxicity",Potency
CCn1cnc2cc(NCc3ccc(N(C)C)cc3)ccc21,inactive: -11%,
CC(C)c1ccc(NC(=O)CN(C)S(=O)(=O)c2ccc3c(c2)n(C)c(=O)c(=O)n3C)cc1,inactive: -10.8%,
CCOC(=O)N1CCN(CCC(=O)Nc2cc(C)ccc2C)CC1,inactive: 4.31%,
CCOc1ccc(C(=O)Nc2ccc3nc(SCC(=O)N4CCCC4)sc3c2)cc1,inactive: 1.14%,
CCc1ccc(CNC(=O)c2cnc3sc(N4CCCCCC4)nn3c2=O)cc1,inactive: 14.7%,
CCC1CCCCN1C(=O)CSc1nc(-c2ccc(OC)cc2)cc(C(F)(F)F)n1 (stereo unspecified),inactive: -2.76%,
CCCC(=O)Nc1nnc(S(=O)(=O)N(C)c2ccccc2)s1,inactive: -4.9%,
COc1ccc(S(=O)(=O)N(CCc2ccccc2)CC(=O)NCc2ccc(C)cc2)cc1,inactive: -0.181%,
Cc1ccc(CSc2nc3cccnc3n2Cc2nc(-c3ccccc3F)oc2C)cc1,inactive: -16.3%,
CCOc1ccc(CNC(=O)CN2C(=O)CSc3c2c(C)nn3-c2ccccc2)cc1,inactive: 29.6%,
COCCNC(=O)c1ccc(NC(=O)N2CCCCc3ccccc32)cc1,inactive: -0.126%,
O=C(Nc1c(O)c2ccccc2oc1=O)c1ccccc1Cl,inactive: -4.49%,
O=C(C1CC1)N1CCc2cc(Br)cc(S(=O)(=O)Nc3ccc(C(F)(F)F)cc3)c21,inactive: 8.01%,
CCOc1ccc(-n2nc3ccc(NC(=O)COc4ccccc4C)cc3n2)cc1,inactive: 15%,
COc1ccc(NC(=O)C(=O)NCCc2csc3nc(-c4ccccc4C)nn23)cc1,inactive: 15.9%,
COc1cccc(CNC(=O)C2CCCN(c3nnc(-n4c(C)ccc4C)s3)C2)c1 (stereo unspecified),inactive: -6.25%,
O=C(NCC(c1cccnc1)N1CCN(Cc2ccccc2)CC1)C(=O)Nc1ccc(F)cc1 (stereo unspecified),inactive: -0.332%,
COC(=O)c1ccccc1NC(=O)CSc1c2c(nc3ccc(Cl)cc13)CCCC2,inactive: 16.8%,
CCOc1ccc(CN2C(=O)c3ccccc3Sc3ccc(C(=O)NC4CCC(C)CC4)cc32)cc1 (stereo unspecified),inactive: 5.34%,
CCOC(=O)c1ccccc1NC(=O)CCc1c(C)nc2c(c1C)c(=O)n(C)c(=O)n2C,inactive: -0.107%,
Cc1ccc(Cn2c(Cc3ccccc3)nc3ccccc32)cc1,inactive: -21.1%,
COC(=O)c1ccc(NC(=O)CCOc2ccccc2)cc1,inactive: 3.65%,
O=C(NC1CC(=O)N(c2ccc(F)cc2)C1)C(c1ccccc1)c1ccccc1 (stereo unspecified),inactive: -2.53%,
Cn1cc(C(=O)N2CCN(c3ccccc3)CC2)c(=O)c2cc(S(=O)(=O)N3CCCC3)ccc21,inactive: -21.5%,

SMILES,"activity change, negative = cytotoxicity",Potency
COC(=O)c1ccc(NC(=O)c2cc3cc4ccc(OC)c(Cl)c4nc3s2)cc1,inactive: 3.14%,
CC(=O)c1ccc(NC(=O)c2nn(C)c3c2COc2ccccc2-3)cc1,inactive: 3.66%,
COc1ccccc1NC(=O)C1=C(C)Nc2nc(SCc3ccccc3)nn2C1c1cccs1 (stereo unspecified),inactive: -8.93%,
Cc1ccc(NC(=O)c2sc3nc[nH]c(=O)c3c2C)cc1C,inactive: -0.0557%,
Cc1ccc(NC(=O)CN2C(=O)c3ccccc3Sc3ncccc32)c(C)c1,inactive: 24.3%,
O=C(NCCc1ccc(Cl)cc1)c1ccc2c(c1)N(Cc1ccccc1)C(=O)CS2,inactive: -15.7%,
O=c1c2ccccc2nc(-c2ccc(Cl)cc2)n1CCCCOc1ccc(F)cc1,inactive: 7.65%,
CCOc1ccccc1NC(=O)N1CCC(N2CCN(Cc3ccccc3)C(=O)C2=O)CC1,inactive: -3.72%,
CC(Oc1ccccc1F)C(=O)N1CCC(c2nc3ccccc3o2)CC1 (stereo unspecified),inactive: 1.65%,
CCOC(=O)c1c(NC(=O)c2cc(-c3ccc(Br)cc3)on2)sc(C)c1C,inactive: -3.41%,
CCc1cc2c(-c3ccccc3)cc(=O)oc2c2c1OCN(Cc1ccc(C)cc1)C2,inactive: 0.481%,
CCN(Cc1ccccc1)S(=O)(=O)c1ccc(F)c(C(=O)Nc2ccc(C(C)C)cc2)c1,inactive: 0.544%,
Cc1cccc(C)c1NC(=O)c1cc2sccc2n1Cc1ccc(F)cc1,inactive: -6.87%,
COc1ccc(OC)c(CNc2ncc(-c3ccc(Cl)cc3)n2C)c1,inactive: 24%,
COc1cc(NC(=O)C2CCN(S(=O)(=O)c3c(C)noc3/C=C/c3c(C)cc(C)cc3C)CC2)cc(OC)c1,inactive: 10.9%,
Cc1ccc(CNC(=O)c2cn(C)c3ccc(S(=O)(=O)N4CCC(C)CC4)cc3c2=O)cc1,inactive: -2.67%,
Cc1ccc(CNC(=O)CCCn2nc(C)n3c(cc4sccc43)c2=O)cc1,inactive: 4.46%,
COc1cccc(C(=O)c2cn(CC(=O)Nc3ccc4c(c3)OCCO4)c3nc(C)ccc3c2=O)c1,inactive: -10.9%,
CCC(=O)N1CCc2cc(S(=O)(=O)NC(CC(C)C)C(=O)NCc3cccc(OC)c3)ccc21 (stereo unspecified),inactive: -19.1%,
Cc1ccc(Sc2c(C)nn(-c3ccccc3)c2OC(=O)CC(C)C)cc1,inactive: 3.85%,
CCOc1ccc(CC(=O)NCc2ccc3c(c2)CCN3C(=O)c2ccc(F)cc2)cc1OCC,inactive: 4.76%,
O=C(NCCCc1ccccc1)c1ccc2c(c1)sc1nc(-c3ccc(F)cc3)cn12,inactive: -22.2%,
Cc1ccc(COC(=O)c2ccc(-c3nnn(Cc4ccc(C)cc4)n3)cc2)cc1,inactive: 1.75%,
CCN(CCCNC(=O)CN1N=C(c2ccc(C)cc2)CCC1=O)c1ccccc1,inactive: -9.84%,

SMILES,"activity change, negative = cytotoxicity",Potency
CCOc1ccc(C2c3[nH]c4ccccc4c3CCN2C(=O)CCC2CCCC2)cc1 (stereo unspecified),inactive: -16.8%,
CCOC(=O)C1CCCN(S(=O)(=O)c2cc(Br)cc3c2N(C(=O)CC)CC3)C1 (stereo unspecified),inactive: 6.2%,
CCCCN(CC)C(=O)Cn1cc2c(n1)-c1c(oc(C(=O)N3CCCC3)c1C)CC2,inactive: 2.14%,
CC(=O)C(Sc1nc(-c2ccccc2Cl)nc2c1c(=O)n(C)c(=O)n2C)C(=O)N(C)C (stereo unspecified),inactive: -9.55%,
O=C(CCc1nnc2n(Cc3ccccc3Cl)c(=O)c3ccccc3n12)Nc1ccccc1,inactive: 7.45%,
COc1ccc(NC(=O)c2ccc(-c3nc(CSc4ccccc4)c(C)o3)cc2)c(OC)c1,inactive: -9.39%,
O=C(NCc1ccc2c(c1)CCN2C(=O)c1ccncc1)c1cccc(F)c1,inactive: 1.06%,
CCOC(=O)c1[nH]c(C)c(C(=O)NCc2ccccc2Cl)c1C,inactive: -21.5%,
CCN1C(=O)c2ccccc2S(=O)c2ccc(C(=O)N3CCN(c4cccc(Cl)c4)CC3)cc21 (stereo unspecified),inactive: -4.36%,
COC(=O)c1cc(NC(=O)CCc2c(C)nc3nc(C)nn3c2C)cc(C(=O)OC)c1,inactive: -8.22%,
O=C(Cc1ccc(F)cc1)NCCc1csc2nc(-c3ccc(Cl)cc3)nn12,inactive: -28.7%,
CCOc1ccc(NC(=O)Cn2cc(C(=O)c3ccccc3)c(=O)c3cc(OC)ccc32)cc1,inactive: 0.124%,
CCOC(=O)Cn1c(=O)cc(C)c2c(C)nn(-c3cccc(F)c3)c21,inactive: -14.1%,
Cc1ccc2c(c1)-c1onc(C(=O)N(C)c3ccc(F)cc3)c1CO2,inactive: 28%,
Cc1cccc(CC(=O)Nc2cccc(-c3cn4cccnc4n3)c2)c1,inactive: -2.74%,
CCCCn1c(SCc2ccccc2C#N)nc2c(sc3ccccc32)c1=O,inactive: -0.835%,
Cc1ccc(-n2ncc3c(=O)n(Cc4cccc(C(F)(F)F)c4)cnc32)cc1C,inactive: 5.22%,
CC1=C(C(=O)Nc2ccccc2C)C(c2ccc[nH]2)n2ncnc2N1 (stereo unspecified),inactive: -4.9%,
CCOC(=O)c1sc(NC(=O)c2nc3ncccn3n2)c(C(=O)OC(C)C)c1C,inactive: 5.44%,
CCOc1ccccc1N1CC(c2nc3ccccc3n2CCOc2ccc(OC)cc2)CC1=O (stereo unspecified),inactive: 3.68%,
CC(=O)N(Cc1cccnc1)c1nc2c(C)cc(C)cc2s1,inactive: -20.1%,
COc1ccc(CNC(=O)c2cc(-c3cccs3)nc3ccccc23)c(OC)c1,inactive: -17.5%,
Cc1ccc(-c2nc3ccccn3c2Nc2c(C)cccc2C)o1,inactive: 24.7%,
CC1CCc2c(sc3nnn(Cc4ccccc4)c(=O)c23)C1 (stereo unspecified),inactive: 7.04%,

SMILES,"activity change, negative = cytotoxicity",Potency
Cc1ccc(NS(=O)(=O)c2ccc3[nH]c4c(c3c2)CCCC4)c(C)c1,inactive: -4.46%,
Cc1nnc(N2CCCC(C(=O)Nc3ccccc3C(F)(F)F)C2)c2nn(-c3ccccc3)c(C)c12 (stereo unspecified),,active: 28.2 µM
O=C(CSc1oc(-c2ccccc2)nc1S(=O)(=O)c1ccc(Br)cc1)NC1CCCCC1,inactive: -5.96%,
COc1ccc(CNC(=O)c2ccc3c(c2)N(Cc2ccccc2F)C(=O)c2ccccc2S3=O)cc1 (stereo unspecified),inactive: 0.352%,
CC(=O)Nc1nonc1-c1nnc(SCc2ccccc2C)n1C,inactive: -19.1%,
CCOc1nc(NC(=O)NS(=O)(=O)Oc2cccc(F)c2)nc(-c2ccccc2)n1,inactive: -0.35%,
CCc1ccccc1NC(=O)Cc1ccc(-n2c(C)nc3cccnc32)cc1,inactive: 0.569%,
COc1ccc(OC)c(NC(=O)Cc2c(C(=O)O)[nH]c3ccc(Cl)cc23)c1,inactive: 14.1%,
COc1cccc(-c2ccc3c(N)c(C(=O)Nc4ccc(Cl)cc4F)sc3n2)c1,inactive: -4.61%,
CC(C)Cn1c(=O)c2sccc2n2c(CCCC(=O)NCC(C)c3ccccc3)nnc12 (stereo unspecified),inactive: 14%,
O=C(NCCN1CCN(c2ccccc2F)CC1)C1COc2ccccc2C1 (stereo unspecified),inactive: -2.69%,
Cc1cccc(C(=O)Nc2c(-c3ccc(F)cc3)nc3ccccn23)c1,inactive: -14.3%,
Cc1cc(C)n(-c2nc3cc(Cl)c(Cl)cc3nc2Nc2ccc(F)cc2C)n1,inactive: 0.556%,
CCn1c(=O)c2cc(C(=O)Nc3cc(C)c(Cl)cc3OC)sc2c2ccccc21,inactive: 13.7%,
COc1ccc(NC(=O)CSc2nc3ccccc3n2CC(=O)N2CCCC(C)C2)cc1 (stereo unspecified),inactive: -0.897%,
Cc1ccc(NC(=O)c2cc3c(Cl)nc4ccc(C)cc4c3s2)c(Cl)c1,inactive: -0.0219%,
O=C(c1ccc(Cl)cc1)N1CCCCC1CCN1CCOCC1 (stereo unspecified),inactive: 7.7%,
Cc1ccc(C)c(N2CCN(C(=O)c3cc4c(=O)n(Cc5cccnc5)ccc4nc3C)CC2)c1,inactive: -11%,
Cc1cc(C)c(Cn2c3ccccc3c3cnn(CC(=O)NC4CCCCCC4)c(=O)c32)c(C)c1,inactive: -0.902%,
COc1ccc(Cn2cc(C(=O)c3ccc(Cl)cc3)c(=O)c3cc4c(cc32)OCO4)cc1,inactive: 27.1%,
CCc1ccc(Nc2nn3c(=O)c4cc5c(cc4nc3s2)OCO5)cc1,inactive: 10.2%,
Cc1ccc(-n2nc3c(N4CCC(C(=O)N5CCC(C)CC5)CC4)nnc(C)c3c2C)cc1,inactive: -5.42%,
O=C(Nc1cccc(Cl)c1Cl)c1cc(S(=O)(=O)N2CCC3(CC2)OCCO3)ccc1F,inactive: -8.05%,
Cc1cc(C)cc(NC(=O)C2CCCN2S(=O)(=O)c2ccc3c(c2)C(C)(C)C(=O)N3C)c1 (stereo unspecified),inactive: 6.07%,
